Assay results: publication PMC12820563, “FoxP3 forms a head-to-head dimer in vivo and stabilizes its multimerization on adjacent microsatellites”
This is one part of the list.

biological target: T1, MBP-FoxP1dN (Mus musculus, UniProt P58462 326-579); experiment: PD-seq (MBP pull-down with sequencing); 20 mM Tris-HCl pH 7.5, 100 mM NaCl, 1.5 mM MgCl2, 0.4 uM protein, 0.1 uM dsDNA library, 30 min, room temperature, amylose pull-down; high values mean tight binding; conditions: protein: recombinant; tags: His6-MBP; chain copies: 2; dsDNA, one strand shown
T1 sequence: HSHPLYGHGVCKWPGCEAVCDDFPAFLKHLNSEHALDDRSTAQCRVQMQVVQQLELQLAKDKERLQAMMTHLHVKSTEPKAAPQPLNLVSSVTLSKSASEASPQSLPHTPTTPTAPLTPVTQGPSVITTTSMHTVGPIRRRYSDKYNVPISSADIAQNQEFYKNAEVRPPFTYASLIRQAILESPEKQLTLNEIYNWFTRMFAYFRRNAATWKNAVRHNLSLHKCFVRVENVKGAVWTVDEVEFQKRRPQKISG
How it was run: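 His6-MBP-tagged mouse FoxP3 or FoxP1 fragment lacking the N-terminus, expressed in E. coli, was mixed at 0.4 µM with 0.1 µM Klenow-filled double-stranded degenerate DNA library. Incubation was 30 min at room temperature in Tris pH 7.5 buffer with NaCl and MgCl2. Complexes were caught on amylose resin and washed three times; DNA was released with proteinase K, PCR-barcoded and Illumina-sequenced. Binding is reads-per-million enrichment, pull-down over input, with replicates pooled.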

Question: “GATGATTGTTCTCCCAGCTGATGAATTGCGGTACTCGAGTAAACAAATTTTCCTAATCTTTCTGTTCAAGCGCCATCTAC” was tested. Which binding signal did it give?
Answer: Its binding signal is 1.07 RPM ratio (pull-down/input).

Question: “GATGATTGTTCTCCCAGCTGATGAATTACGATACTCGAGTAAACAAATTTTCCTAATCTTTCTGTTCAAGCGCCATCTAC” was tested. Which binding signal did it give?
Answer: The binding signal was 1.13 RPM ratio (pull-down/input).

Question: Which binding signal does the source give for “GATGATTGTTCTCCCAGCTGATGAATTATAAAATTCGAGTAAACAAATTTTCCTAATCTTTCTGTTCAAGCGCCATCTAC” here?
Answer: The binding signal was 1.05 RPM ratio (pull-down/input).

Question: For “GATGATTGTTCTCCCAGCTGATGAATTTGACCTCTCGAGTAAACAAATTTTCCTAATCTTTCTGTTCAAGCGCCATCTAC”, which binding signal is on record?
Answer: Its binding signal is 0.806 RPM ratio (pull-down/input).

Question: Which binding signal does the source give for “GATGATTGTTCTCCCAGCTGATGAATTGTCGTTGTCGAGTAAACAAATTTTCCTAATCTTTCTGTTCAAGCGCCATCTAC” here?
Answer: Its binding signal is 1.38 RPM ratio (pull-down/input).

Question: With “GATGATTGTTCTCCCAGCTGATGAATTCCACAGGTCGAGTAAACAAATTTTCCTAATCTTTCTGTTCAAGCGCCATCTAC” as the sequence, how does the binding signal read?
Answer: The binding signal was 0.798 RPM ratio (pull-down/input).

Question: How did the binding signal turn out when “GATGATTGTTCTCCCAGCTGATGAATTCCCTTCATCGAGTAAACAAATTTTCCTAATCTTTCTGTTCAAGCGCCATCTAC” was run?
Answer: Its binding signal is 0.855 RPM ratio (pull-down/input).

Question: For “GATGATTGTTCTCCCAGCTGATGAATTGCCTTCTTCGAGTAAACAAATTTTCCTAATCTTTCTGTTCAAGCGCCATCTAC”, which binding signal is on record?
Answer: The binding signal was 0.996 RPM ratio (pull-down/input).

Question: “GATGATTGTTCTCCCAGCTGATGAATTGTGATCGTCGAGTAAACAAATTTTCCTAATCTTTCTGTTCAAGCGCCATCTAC” was tested. Which binding signal did it give?
Answer: The binding signal was 1.16 RPM ratio (pull-down/input).

Question: With “GATGATTGTTCTCCCAGCTGATGAATTGCAATTTTCGAGTAAACAAATTTTCCTAATCTTTCTGTTCAAGCGCCATCTAC” as the sequence, how does the binding signal read?
Answer: Its binding signal is 1.59 RPM ratio (pull-down/input).

Question: With “GATGATTGTTCTCCCAGCTGATGAATTTGGTGACTCGAGTAAACAAATTTTCCTAATCTTTCTGTTCAAGCGCCATCTAC” as the sequence, how does the binding signal read?
Answer: The binding signal was 0.903 RPM ratio (pull-down/input).

Question: “GATGATTGTTCTCCCAGCTGATGAATTAGTTTTCTCGAGTAAACAAATTTTCCTAATCTTTCTGTTCAAGCGCCATCTAC” was tested. Which binding signal did it give?
Answer: The binding signal was 1.06 RPM ratio (pull-down/input).

Question: “GATGATTGTTCTCCCAGCTGATGAATTTTGTCACTCGAGTAAACAAATTTTCCTAATCTTTCTGTTCAAGCGCCATCTAC” was tested. Which binding signal did it give?
Answer: Its binding signal is 1.13 RPM ratio (pull-down/input).

Question: Which binding signal does the source give for “GATGATTGTTCTCCCAGCTGATGAATTCAGTAAATCGAGTAAACAAATTTTCCTAATCTTTCTGTTCAAGCGCCATCTAC” here?
Answer: The binding signal was 1.26 RPM ratio (pull-down/input).

Question: “GATGATTGTTCTCCCAGCTGATGAATTACAGGGATCGAGTAAACAAATTTTCCTAATCTTTCTGTTCAAGCGCCATCTAC” was tested. Which binding signal did it give?
Answer: Its binding signal is 0.913 RPM ratio (pull-down/input).

Question: For “GATGATTGTTCTCCCAGCTGATGAATTTTTAATCTCGAGTAAACAAATTTTCCTAATCTTTCTGTTCAAGCGCCATCTAC”, which binding signal is on record?
Answer: Its binding signal is 0.864 RPM ratio (pull-down/input).

Question: Which binding signal does the source give for “GATGATTGTTCTCCCAGCTGATGAATTGACCTTTTCGAGTAAACAAATTTTCCTAATCTTTCTGTTCAAGCGCCATCTAC” here?
Answer: Its binding signal is 0.951 RPM ratio (pull-down/input).

Question: With “GATGATTGTTCTCCCAGCTGATGAATTAGATCATTCGAGTAAACAAATTTTCCTAATCTTTCTGTTCAAGCGCCATCTAC” as the sequence, how does the binding signal read?
Answer: Its binding signal is 0.995 RPM ratio (pull-down/input).

Question: Which binding signal does the source give for “GATGATTGTTCTCCCAGCTGATGAATTGGTTGTATCGAGTAAACAAATTTTCCTAATCTTTCTGTTCAAGCGCCATCTAC” here?
Answer: Its binding signal is 1.3 RPM ratio (pull-down/input).

Question: How did the binding signal turn out when “GATGATTGTTCTCCCAGCTGATGAATTAGTAGCTTCGAGTAAACAAATTTTCCTAATCTTTCTGTTCAAGCGCCATCTAC” was run?
Answer: The binding signal was 0.979 RPM ratio (pull-down/input).

Question: Which binding signal does the source give for “GATGATTGTTCTCCCAGCTGATGAATTGCACCAATCGAGTAAACAAATTTTCCTAATCTTTCTGTTCAAGCGCCATCTAC” here?
Answer: Its binding signal is 1.27 RPM ratio (pull-down/input).

Question: With “GATGATTGTTCTCCCAGCTGATGAATTGTGTTTGTCGAGTAAACAAATTTTCCTAATCTTTCTGTTCAAGCGCCATCTAC” as the sequence, how does the binding signal read?
Answer: The binding signal was 2.8 RPM ratio (pull-down/input).

Question: “GATGATTGTTCTCCCAGCTGATGAATTCGATACTTCGAGTAAACAAATTTTCCTAATCTTTCTGTTCAAGCGCCATCTAC” was tested. Which binding signal did it give?
Answer: Its binding signal is 0.906 RPM ratio (pull-down/input).

Question: How did the binding signal turn out when “GATGATTGTTCTCCCAGCTGATGAATTACATCTATCGAGTAAACAAATTTTCCTAATCTTTCTGTTCAAGCGCCATCTAC” was run?
Answer: The binding signal was 1.2 RPM ratio (pull-down/input).

Question: With “GATGATTGTTCTCCCAGCTGATGAATTACCGTTTTCGAGTAAACAAATTTTCCTAATCTTTCTGTTCAAGCGCCATCTAC” as the sequence, how does the binding signal read?
Answer: The binding signal was 1.15 RPM ratio (pull-down/input).

Question: With “GATGATTGTTCTCCCAGCTGATGAATTACGTTATTCGAGTAAACAAATTTTCCTAATCTTTCTGTTCAAGCGCCATCTAC” as the sequence, how does the binding signal read?
Answer: Its binding signal is 1.21 RPM ratio (pull-down/input).

Question: With “GATGATTGTTCTCCCAGCTGATGAATTGTAATTCTCGAGTAAACAAATTTTCCTAATCTTTCTGTTCAAGCGCCATCTAC” as the sequence, how does the binding signal read?
Answer: The binding signal was 1.05 RPM ratio (pull-down/input).

Question: “GATGATTGTTCTCCCAGCTGATGAATTTCACCTATCGAGTAAACAAATTTTCCTAATCTTTCTGTTCAAGCGCCATCTAC” was tested. Which binding signal did it give?
Answer: Its binding signal is 0.832 RPM ratio (pull-down/input).

Question: With “GATGATTGTTCTCCCAGCTGATGAATTTAAGAGATCGAGTAAACAAATTTTCCTAATCTTTCTGTTCAAGCGCCATCTAC” as the sequence, how does the binding signal read?
Answer: Its binding signal is 0.932 RPM ratio (pull-down/input).

Question: “GATGATTGTTCTCCCAGCTGATGAATTATAACAGTCGAGTAAACAAATTTTCCTAATCTTTCTGTTCAAGCGCCATCTAC” was tested. Which binding signal did it give?
Answer: The binding signal was 1.2 RPM ratio (pull-down/input).

Question: “GATGATTGTTCTCCCAGCTGATGAATTTTCAGAATCGAGTAAACAAATTTTCCTAATCTTTCTGTTCAAGCGCCATCTAC” was tested. Which binding signal did it give?
Answer: The binding signal was 0.968 RPM ratio (pull-down/input).
